The test concerns the target FLAG-CLASPIN (human) (UniProt Q9HAW4). Briefly: co-IP; HEK293T cells co-transfected with tagged proteins, lysed in NETN buffer, anti-FLAG M2 beads 4 h, 4°C, immunoblot; in some panels cells mock-treated or treated with 2 mM HU for 1 h, or transfected with siNC or siTRIM21. (In general: A western blot detects proteins with antibodies after separation by electrophoresis.)

The chains behind the UniProt entries cited, without tags or fusion partners.
UniProt Q9HAW4: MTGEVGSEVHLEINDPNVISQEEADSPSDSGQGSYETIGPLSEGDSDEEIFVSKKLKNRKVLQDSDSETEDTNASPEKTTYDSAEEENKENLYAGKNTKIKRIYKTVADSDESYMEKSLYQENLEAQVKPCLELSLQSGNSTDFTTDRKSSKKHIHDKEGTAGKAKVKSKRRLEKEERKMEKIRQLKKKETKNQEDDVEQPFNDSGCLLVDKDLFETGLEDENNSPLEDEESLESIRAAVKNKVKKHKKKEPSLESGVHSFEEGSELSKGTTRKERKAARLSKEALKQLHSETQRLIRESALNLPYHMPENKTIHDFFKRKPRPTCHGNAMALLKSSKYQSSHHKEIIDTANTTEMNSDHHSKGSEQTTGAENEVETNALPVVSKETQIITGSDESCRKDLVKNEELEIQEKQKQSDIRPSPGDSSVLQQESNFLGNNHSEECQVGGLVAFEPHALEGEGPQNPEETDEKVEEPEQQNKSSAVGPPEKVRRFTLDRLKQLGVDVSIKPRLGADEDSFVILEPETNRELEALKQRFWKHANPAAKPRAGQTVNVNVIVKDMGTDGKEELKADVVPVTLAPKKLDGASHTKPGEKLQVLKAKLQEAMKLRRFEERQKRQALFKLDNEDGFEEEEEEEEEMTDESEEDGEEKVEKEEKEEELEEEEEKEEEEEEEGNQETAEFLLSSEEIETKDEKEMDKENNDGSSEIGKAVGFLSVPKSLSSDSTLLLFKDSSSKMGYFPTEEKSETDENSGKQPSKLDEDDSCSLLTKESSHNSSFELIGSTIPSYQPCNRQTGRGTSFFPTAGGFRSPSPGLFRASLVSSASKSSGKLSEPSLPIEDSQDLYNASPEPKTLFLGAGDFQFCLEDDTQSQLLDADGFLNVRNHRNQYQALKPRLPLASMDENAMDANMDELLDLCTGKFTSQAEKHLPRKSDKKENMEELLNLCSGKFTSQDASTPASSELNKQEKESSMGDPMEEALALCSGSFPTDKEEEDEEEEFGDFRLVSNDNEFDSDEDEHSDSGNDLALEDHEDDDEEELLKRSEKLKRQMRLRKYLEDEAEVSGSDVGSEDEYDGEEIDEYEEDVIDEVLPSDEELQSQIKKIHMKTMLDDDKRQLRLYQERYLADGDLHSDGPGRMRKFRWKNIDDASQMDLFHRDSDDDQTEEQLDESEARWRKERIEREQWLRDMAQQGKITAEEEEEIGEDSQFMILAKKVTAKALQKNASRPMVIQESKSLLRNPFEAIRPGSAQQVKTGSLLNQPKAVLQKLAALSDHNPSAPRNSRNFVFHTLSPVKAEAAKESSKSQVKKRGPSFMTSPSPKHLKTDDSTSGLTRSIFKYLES

Results are given in words; binding and its absence hold for the method and conditions named. In cells and extracts the contact can be indirect. Some binding calls cover weakened binding; strength is not graded here. Tags and fused reporters may be left off the sequences shown.

B1: HA-TIPIN (protein, UniProt Q9BVW5 1-301)
chain: MLEPQENGVIDLPDYEHVEDETFPPFPPPASPERQDGEGTEPDEESGNGAPVRVPPKRTVKRNIPKLDAQRLISERGLPALRHVFDKAKFKGKGHEAEDLKMLIRHMEHWAHRLFPKLQFEDFIDRVEYLGSKKEVQTCLKRIRLDLPILHEDFVSNNDEVAENNEHDVTSTELDPFLTNLSESEMFASELSRSLTEEQQQRIERNKQLALERRQAKLLSNSQTLGNDMLMNTPRAHTVEEVNTDEDQKEESNGLNEDILDNPCNDAIANTLNEEETLLDQSFKNVQQQLDATSRNITEAR
For B1, the binding result is listed as “binds”.

These data come from paper PMC8860585.
